The target in the assay is IL-6 (UniProt P05231 30-212, limits assumed). The experiment in a line: cell-based or functional assay.

This note sets out measurements from patent publication US20160237132A1 (ALKERMES, published 2016).

IL-6, sequence (P05231 30-212 limits assumed): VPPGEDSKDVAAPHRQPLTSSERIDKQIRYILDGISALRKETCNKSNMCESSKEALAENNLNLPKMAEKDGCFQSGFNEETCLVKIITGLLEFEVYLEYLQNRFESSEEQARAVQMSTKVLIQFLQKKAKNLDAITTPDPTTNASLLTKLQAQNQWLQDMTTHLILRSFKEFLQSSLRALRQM

B1: RDB1613 (Fc fusion)
chain: LLDPCGYISPESPVVQLHSNFTAVCVLKEKCMDYFHVNANYIVWKTNHFTIPKEQYTIINRTASSVTFTDIASLNIQLTCNILTFGQLEQNVYGITIISGLPPEKPKNLSCIVNEGKKMRCEWDGGRETHLETNFTLKSEWATHKFADCKAKRDTPTSCTVDYSTVYFVNIEVWVEAENALGKVTSDHINFDPVYKVKPNPPHNLSVINSEELSSILKLTWTNPSIKSVIILKYNIQYRTKDASTWSQIPPEDTASTRSSFTVQDLKPFTEYVFRIRCMKEDGKGYWSDWSEEASGITYEDRGGGSGGGASSESSASSDGPHPVITESRASSESSASSDGPHPVITESR[letters of human IgG1 Fc with C220S (EU numbers) not shown]
Consider B1, for which the “IC50, inhibition of IL-6-dependent differentiation of M1 cells (percent CD32 positive cells; stimulated with IL-6 and IL-6Ra)” value worked out at 2.5 nM; the “fold potency against RDB1601, inhibition of IL-6-dependent differentiation of M1 cells” value was determined as 8 fold.

B2: RDB1601 (Fc fusion)
chain: MDAMKRGLCCVLLLCGAVFVSARLLDPCGYISPESPVVQLHSNFTAVCVLKEKCMDYFHVNANYIVWKTNHFTIPKEQYTIINRTASSVTFTDIASLNIQLTCNILTFGQLEQNVYGITIISGLPPEKPKNLSCIVNEGKKMRCEWDGGRETHLETNFTLKSEWATHKFADCKAKRDTPTSCTVDYSTVYFVNIEVWVEAENALGKVTSDHINFDPVYKVKPNPPHNLSVINSEELSSILKLTWTNPSIKSVIILKYNIQYRTKDASTWSQIPPEDTASTRSSFTVQDLKPFTEYVFRIRCMKEDGKGYWSDWSEEASGITTGGG[letters of human IgG1 Fc not shown]
With B2, the “IC50, inhibition of IL-6-dependent differentiation of M1 cells (percent CD32 positive cells; stimulated with IL-6 and IL-6Ra)” value stood at 20.1 nM.
